Results: the RNAGym collection of RNA variant scans (doi:10.7554/elife.90254)
The source gives no read counts; variants with many changes may rest on few reads.

B1: LINE1-full (parent)
chain: UACGUAGGUGGUUUUCCCCUGAUAGUGCUAAGGGGGCCUGGAAGUUUGGACUGGGCAGAGCUCAACACAGCGUGGCAAAGUGGCUGUGGCUAGACUGCCUCUCUGGAUUCCUCGUCACUCAGCAGGGCAUCUCUGAGAGAAAUGCC

Variants of: B1
Assay: self-cleavage, relative activity (ratio to wild type); higher = more cleavage; in vitro, sequencing; the parent is a self-cleaving ribozyme

Variant | self-cleavage
C16A U85A G122U | 0.06
U15C U47C U52A A142G | 0
C18U U46A A57U A124G | 0.04
U15C A65G A124U | 0.04
U15G A69G C103A U130C U143A | 0.27
U15C U39C A59G A79G | 0
U15A U104C A129U | 0.67
U15C C37A G105U A138G | 1.47
U15C U20G A42U U115C A138G | 0.51
U15C U47A A78G | 1.16
U15C U29C G44C U102C | 1.28
C16U A129G U130A U143A | 0.9
C16U A94U C116U | 0.21
C18A G60A U134A | 0.05
U15C U47A C98U | 0.4
U15A U46C A142G | 1.31
C18U G53A A59G | 0.05
U15C G41A A69G | 0.59
U15C A50G A69U C99U | 0.02
C19U A22G U52A U73A U132C | 0.93
C19G U23A A121U U134C | 1.1
C17U C19U C37A A50G U62A | 0.17
U15C G33A A77G | 1.84
U15C U100G C131A | 2.19

Variant | self-cleavage
U15G A57G A78G | 1.07
U15C U26C A77G C110A A141U | 2.3
C18U U102A A129G | 2.12
U15C C19U U62C U91C A141U | 0.06
U15C A22G U73C | 1.75
U15C U26C A141G | 1.26
C17U C18A U73C | 0.84
U15C G21A A69G A117G G122U | 0.78
U15C U26C A79G U100C A136G | 2.12
U15G C68U U85C U134A | 0.08
U15C A42G U73G U104A A107G | 1.72
U15C A42G A79G | 2.15
U15C A22G G75A G97A U112C U143C | 0.11
C18U G40C C131U | 0.86
U15C U23C U26A U100C | 1.02
U15C U29C U87C | 0.43
U15C A107G U115A | 1.46
C16U U47C U85A U102A | 0.38
U15C U62C A77G | 0.11
U15A U100C U104A A124C | 2.63
U15C A64U U85A U87C | 0.34
C19U A79G A92C | 1.15
C19U A129U A138U A140G | 1.43
U15C G89A U100C | 0.02

Variant | self-cleavage
C18A U26C U73A A107U C110A A138G | 0.98
U15C A59C A140G | 0.85
U15C A57U A94U U104C | 0.12
U15C C131G A138G | 1.53
U15C U45C A50G | 2.16
C18A U104C U130C | 0.81
C19U A31U A59G A140G | 0
U15C U23C A50G A65U G82A U132A | 0.28
U15C U96G G126A | 0.12
U15C A31U U47C A78U U85C | 0.63
U15C U46C C63U U102C | 0.33
C18A A31C U87A U96A | 0.15
C17U U109C U134C A142G | 0.98
C19A A59C U109A G135C A136U A141G | 1.33
C18U U62C G88A G105A | 0.03
C16U U73C A136G | 1.91
C16A U39C A50G U62A U108C U132C U143C | 0
U15C U47C C76U U85G A121G | 0.19
U15C G40A U46C A50U U102C U115C A124U | 0.92
U15C G55A U62A | 0.02
C18U U45C U62A | 0.06
C19A U46A A92G A142G | 0.06
C19U A31G G32A | 0.07
U15C A22G A24U | 1.31

Variant | self-cleavage
U15C A30G U39A U47A G135A | 0.36
C18A U26C U52C | 1.15
U15A U62C G89C U96A | 0.03
U15C C16U U102C | 1.88
U15G U47A A121U | 0.12
C17U C18A A31G C90U C120U U130C | 0.04
C19A U62C U130C | 0.05
C19G U29A G144A | 1.08
U15C A136G A138G | 0.61
C16U U39C U62A | 0.09
U15C C128U U130C U143C | 1.07
U15C G53C U73C G105U | 1.66
U15C U23G G75A A124U | 0.7
U15C U26C A30C A31G A79G G106A C123U | 0.75
C19U A129G U132C | 1.58
C16G A138G U143C | 1.33
U15G U62C A124G | 0
C19A U96G U115A | 0
C17U U47C G75A U96A U104C | 0.03
U15C G49A A64G U102C A136G | 0.59
U15C A42G A77G | 2
U15C A43G U108C A121U | 1.34
C19U A22U A69G | 0
U15C A30U G34A A77C | 1.3

Variant | self-cleavage
C19U A22G U46A | 1.07
U15C G41U U47A U73C A79G | 0.88
C16U U62C C71U A79G | 0.07
C18U G74A U119C | 1.35
U15C C19U U29C U115C | 1.27
C16A A30G U96C A121U | 0.23
U15C A78G U102C | 1.56
U15C A64U A124G A129G A140U | 0.36
U15A U46C U62C U130C | 0.26
C18U A42G U47G U115C A129U | 2.04
U15C A31U A136U | 1.03
C18U U47A U130C | 1.09
U15C U26G A141G | 1.23
U15C A67U A107G U143C | 0
C19A U85A U119C | 0.19
U15C A43U U46A | 0.96
U15C U46C G83U U134C | 1.07
U15C A24G U134C | 1.35
U15C U47C A78G | 1.69
C17A G32A A59C U73G C110U | 0.74
U15C U85A U102C A124U C133U A136G | 0.24
C17A A50G U100C | 1.72
C17U U47A U87C U100C | 0.56
U15C A64G U81C U104C | 0

Variant | self-cleavage
U15C A78G U143C | 1.15
U15C G25A A57G C128U | 0.7
U15C U87C U119C | 0.61
U15C A30G U134C | 0.93
U15C U39C U45A C99U U100C U109C A142G | 1.8
C19A C37G U100C | 0.96
U15C A24G U47C | 1.02
U15C U47A A136G | 1.82
U15A U91G U132C | 0.17
C16U A43G C51U | 1.35
U15C U104A A124G | 0.56
U15C U102C U112A G127A | 1.51
U15C U26G C90U | 0.11
U15C A57U A136U | 0.12
C19A A57G U96C U100A A107G G135A | 2.63
C17G U102C U119C | 1.08
C16U A124U A136G | 1.42
U15C U100C A138G | 1.56
C16U A50G U85A | 0.07
U15C U62C A79G U132A | 0
U15C G53A A124G A142G | 1.03
U15C U115A C145A | 1.45
U15C U20C G40A A42G U46C A50G U73A | 1.53
C17U U109C U112C A136G | 1.35

Variant | self-cleavage
U15C U47C G54A A64U U87C | 0.12
U15C C95U U130A U143A | 0.39
U15C A42G U73A | 1.43
U15C U85A A141U | 0.03
C19U A121G A142G | 0.97
C16U U29C G93A | 0.16
C19U A57U A124G U132C | 0.1
U15C U52C U96C | 0
U15C G36A G54U U108A | 0.5
C19U A22G A138G C146A | 0.37
U15A U46C U115C | 0.38
U15G A24G A57U A121G | 1.53
U15A U47A A136U | 1.08
U15G A129G C146U | 1.26
U15G A65G A69U U102A U130C | 0
U15C A22G G126A | 1.18
U15C A77G A140G | 2.45
U15C A59G U115A | 0.13
U15C U62C U73C A77U G114A C120U G127U A129G | 0.01
U15A U115C U143A | 0.74
U15C U45A A69G | 0.41
C16U A124U A138G | 1.3
C16U U20C U29A U119C A129U U134C | 0.74
